The campaign covered roughly 350,000 compounds. About 9,900 (2.8%) were called active. The shares of active, inactive and inconclusive entries below differ from those in the screen. Calls follow the shape of the dose curve; as a rule, active = well fitted activation curve with a large enough effect; inconclusive = small, poorly fitted or top-dose-only effect; inactive = no such curve, though single readings can be large or run the other way. Potencies of inconclusive entries are left out as doubtful fits.
Assay: A quantitative high throughput screen for small molecules that induce DNA re-replication in MCF 10a normal breast cells. Also: nearly all actives have a fitted effect of over 50% in size. As to activity, positive = re-replication: % of control where 0% means no effect.
Settings: MCF 10A DNA re-replication, Hoechst nuclear intensity, 48 h; activity, positive = re-replication: at 46.1 µM (top of the series)
Potency is read from the fitted curve at half-maximal effect; tags tell the direction and shape of the fitted curve.

SMILES | Potency | activity, positive = re-replication
O=C1Nc2c(ccc(Cl)c2Cl)C(=O)C1(F)c1ccccc1 (stereo unspecified) | inconclusive [activator, single point] | 
Cc1c(C(=O)NCCSCc2c(F)cccc2Cl)cnn1-c1ccc(Cl)cc1 | inconclusive [activator, partial curve, poor fit] | 
CCCCCOc1ccc2oc(=O)c3c(c2c1)CCCN3C(=O)CN1CCCC(C(=O)OCC)C1 (stereo unspecified) | inconclusive [activator, single point] | 
Cc1ccc(C)c(OCCC(=O)OCC(=O)Nc2ccc(N3CCOCC3)cc2)c1 | inconclusive [activator, partial curve, poor fit] | 
Cc1cc(C)cc(NC(=O)Cn2nnc(C(=O)NCc3ccco3)c2N)c1 |  | inactive: 7.28%
COc1ccc(CNCC(O)(c2ccccc2)c2ccc(F)cc2)cc1 (stereo unspecified) |  | inactive: 15.1%
OCCN(CC#CC(O)(c1ccccc1)C1CCCCC1)CCO (stereo unspecified) | inconclusive [activator, single point] | 
COc1ccc(NC(=O)c2ccccc2NS(=O)(=O)c2ccc(CNC(C)=O)cc2)c(OC)c1 | active: 5.17 µM | 
O=C1c2ccccc2C(=O)N1Nc1ccccc1 | inconclusive [activator, single point] | 
COC(=O)Cn1cnc2sc3c(c2c1=O)CCCC3 |  | inactive: 1.25%
CCOc1ccc2nc(NC(=O)CSC3=NCCS3)sc2c1 | inconclusive [activator, single point] | 
CC(C)c1ccc(/C=N/NC(=O)c2nnn(-c3nonc3N)c2CN2CCOCC2)cc1 | inconclusive [activator, single point] | 
CN1CCN(S(=O)(=O)c2ccc(Oc3ccc(Br)cc3F)nc2)CC1 | inconclusive [activator, partial curve, poor fit] | 
CCCC(CC)Sc1nc2c([nH]1)c(=S)n(C)c(=O)n2C (stereo unspecified) | inconclusive [activator, single point] | 
S=C1NCC(c2ccccc2)S1 (stereo unspecified) |  | inactive: 6.44%
CC1CC(C)CN(S(=O)(=O)c2ccc(NC(=O)CN3CCCCCC3)cc2)C1 (stereo unspecified) | inconclusive [activator, partial curve, poor fit] | 
O=C(NCc1ccc(F)cc1)c1cnc(-c2ccccn2)nc1C(F)(F)F | inconclusive [activator, partial curve, poor fit] | 
Clc1ccc(-c2n[nH]c3c2CCCC3)cc1 | inconclusive [activator, single point] | 

SMILES | Potency | activity, positive = re-replication
CCn1c2ccccc2c2cc(/C=N/n3cn[nH]c3=S)ccc21 | inconclusive [activator, partial curve, poor fit] | 
Cc1ccc(C(=O)Nc2ccccc2N2CCCCC2)o1 | inconclusive [activator, single point] | 
Cc1ccc(NC(=O)c2ccco2)c(NC(=O)Cc2cccs2)c1 | inconclusive [activator, partial curve, poor fit] | 
Cc1ccc(-c2[nH]c3ccccc3c2C(C[N+](=O)[O-])c2ccco2)cc1 (stereo unspecified) | active: 18.4 µM | 
Cn1cc(/C=N/n2cnc3sc4c(c3c2=O)CCCC4)c2ccccc21 | inconclusive [activator, full curve] | 
Cc1ccccc1N(CC(=O)NCc1ccco1)C(=O)CNS(=O)(=O)c1ccc(F)cc1 |  | inconclusive: 85.8% [activator]
CCC1(O)CCCC2C3CCC4CC(=O)CCC4(C)C3C(=O)CC21C (stereo unspecified) |  | inactive: 7.21%
COc1ccc(C2Nc3ccccc3NC3=C2C(=O)CC(C)(C)C3)cc1O (stereo unspecified) | inconclusive [activator, single point] | 
Cc1ccc(C(NC(=O)N2CCCCC2)=C(Cl)Cl)cc1F | active: 16.4 µM | 
C=CCNc1ccccc1S(=O)(=O)NCc1ccccc1 | inconclusive [activator, partial curve, poor fit] | 
CCC(C)(NC(=O)c1ccc2c(c1)OCO2)C(=O)NC1CCCCC1 (stereo unspecified) |  | inactive: -0.536%
Cc1ccc(C(=O)Nc2cc3c(cc2Cl)OCCCO3)cc1 |  | inactive: -4.41%
O=C(CSc1nc(N2CCOCC2)nc(N2CCOCC2)n1)Nc1ccc([N+](=O)[O-])cc1 | inconclusive [activator, partial curve, poor fit] | 
O=C(NNC(=O)c1ccc2ccccc2c1O)c1ccccc1Cl |  | inactive: 14%
CCc1nnc2c(NCCc3ccccc3)nc3ccccc3n12 |  | inactive: 6.35%
CCN(CC(=O)Nc1c(F)cccc1F)C(=O)CCNC(=O)c1ccccc1OC |  | inactive: 1.66%
COc1ccc(-c2csc3nc(-c4cccnc4)nc(Cl)c23)cc1OC | active: 18.4 µM | 
COc1ccc(S(=O)(=O)n2nc(OC(=O)c3c(-c4ccccc4Cl)noc3C)cc2N)cc1 | active: 1.64 µM | 

From PubChem BioAssay AID624296 (National Center for Advancing Translational Sciences (NCATS), 2012)
